{
  "source": "paper PMC4094278",
  "about": "“The Dictyostelium discoideum RACK1 orthologue has roles in growth and development” (Cell Communication and Signaling : CCS, 2014)",
  "binders": {"B1": {"name": "DdRACK1 fused to the GAL4 activation domain (pACT2) (protein, UniProt P46800 1-329)", "chain": "MEQQKAPQVTYLEVGSLVGHNGFVTSIAVSPENPDTIISSSRDKTVMVWQLTPTDATSPGKAHRSLKGHSHFVQDVVISHDGQFALSGSWDNTLRLWDITKGVSTRLFKGHTQDVMSVAFSSDNRQIISGSRDATIKVWNTLGECKFTLEGPEAHQDWVSCIRFSPNTPTIVSGSWDNKVKIWDIKSFKCNHTLTDHTGYVNTVTISPDGSLCASGGKDTFACLWELSSGKPLYKLEARNTINALAFSPNKYWLSAATDDKIIIWDLLTKQVLAEIVPEVKEQAFDSKKKKESKPKAPACLSLAWSADGSVLYAGYNDGLIRVYKSSSQ"}},
  "key": {"[1]": {"molecular_target": "T1, D. discoideum G protein α7-subunit fused to the GAL4 DNA-binding domain (pAS2-1) (D. discoideum) (UniProt P34045)", "T1 sequence": "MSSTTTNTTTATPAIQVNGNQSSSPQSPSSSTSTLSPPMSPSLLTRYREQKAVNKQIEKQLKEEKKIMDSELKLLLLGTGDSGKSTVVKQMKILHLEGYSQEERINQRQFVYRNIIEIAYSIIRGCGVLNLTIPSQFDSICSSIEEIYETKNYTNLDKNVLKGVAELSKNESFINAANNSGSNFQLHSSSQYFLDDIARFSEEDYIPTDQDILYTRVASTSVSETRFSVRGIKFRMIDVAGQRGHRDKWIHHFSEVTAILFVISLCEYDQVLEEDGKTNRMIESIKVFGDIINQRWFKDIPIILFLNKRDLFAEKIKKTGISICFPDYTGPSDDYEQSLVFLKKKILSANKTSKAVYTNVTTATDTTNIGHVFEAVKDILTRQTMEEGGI", "assay": "two-hybrid; yeast Y190; DdRACK1 in pACT2 (GAL4 AD), G protein subunits in pAS2-1 (GAL4 BD); growth on SD/-Leu/-Trp/-His/+3AT plates and colony-lift β-galactosidase assay read at 1 to 6 h and after 24 h"}, "[2]": {"molecular_target": "T2, D. discoideum G protein α8-subunit fused to the GAL4 DNA-binding domain (pAS2-1) (D. discoideum) (UniProt P34046)", "T2 sequence": "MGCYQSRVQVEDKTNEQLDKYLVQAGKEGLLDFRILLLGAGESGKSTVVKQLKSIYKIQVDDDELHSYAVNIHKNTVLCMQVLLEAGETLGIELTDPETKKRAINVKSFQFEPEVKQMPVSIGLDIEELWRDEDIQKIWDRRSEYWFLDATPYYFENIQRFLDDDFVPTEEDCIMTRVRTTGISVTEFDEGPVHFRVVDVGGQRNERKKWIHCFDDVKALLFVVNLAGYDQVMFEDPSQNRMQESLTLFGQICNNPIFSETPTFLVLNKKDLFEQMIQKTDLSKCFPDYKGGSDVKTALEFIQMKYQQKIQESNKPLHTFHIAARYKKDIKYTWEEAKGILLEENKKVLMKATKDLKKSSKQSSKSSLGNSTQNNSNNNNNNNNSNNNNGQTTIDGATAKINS", "assay": "two-hybrid; yeast Y190; DdRACK1 in pACT2 (GAL4 AD), G protein subunits in pAS2-1 (GAL4 BD); growth on SD/-Leu/-Trp/-His/+3AT plates and colony-lift β-galactosidase assay read at 1 to 6 h and after 24 h"}},
  "note": "These are yes or no findings as the source states them, for the method shown. Some entries that bind do so weakly or less than the wild type. Sequences can lack the tags named with a protein.",
  "data": [
    {"binder": "B1", "values": [
      {"measurement": "binding", "setting": "[1]", "value": "no binding"},
      {"measurement": "binding", "setting": "[2]", "value": "binds"}
    ]}
  ]
}
